About 2,200 (0.71%) of roughly 310,000 compounds showed an effect of 50% or more. Effects have a minus sign here. Some of the results follow.
Biological target: human ether-à-go-go-related gene (hERG) potassium channel (human, UniProt Q12809)
Test: primary screen, population patch clamp on CHO cells stably expressing hERG

Sequence of human ether-à-go-go-related gene (hERG) potassium channel (Q12809 whole entry, looked up): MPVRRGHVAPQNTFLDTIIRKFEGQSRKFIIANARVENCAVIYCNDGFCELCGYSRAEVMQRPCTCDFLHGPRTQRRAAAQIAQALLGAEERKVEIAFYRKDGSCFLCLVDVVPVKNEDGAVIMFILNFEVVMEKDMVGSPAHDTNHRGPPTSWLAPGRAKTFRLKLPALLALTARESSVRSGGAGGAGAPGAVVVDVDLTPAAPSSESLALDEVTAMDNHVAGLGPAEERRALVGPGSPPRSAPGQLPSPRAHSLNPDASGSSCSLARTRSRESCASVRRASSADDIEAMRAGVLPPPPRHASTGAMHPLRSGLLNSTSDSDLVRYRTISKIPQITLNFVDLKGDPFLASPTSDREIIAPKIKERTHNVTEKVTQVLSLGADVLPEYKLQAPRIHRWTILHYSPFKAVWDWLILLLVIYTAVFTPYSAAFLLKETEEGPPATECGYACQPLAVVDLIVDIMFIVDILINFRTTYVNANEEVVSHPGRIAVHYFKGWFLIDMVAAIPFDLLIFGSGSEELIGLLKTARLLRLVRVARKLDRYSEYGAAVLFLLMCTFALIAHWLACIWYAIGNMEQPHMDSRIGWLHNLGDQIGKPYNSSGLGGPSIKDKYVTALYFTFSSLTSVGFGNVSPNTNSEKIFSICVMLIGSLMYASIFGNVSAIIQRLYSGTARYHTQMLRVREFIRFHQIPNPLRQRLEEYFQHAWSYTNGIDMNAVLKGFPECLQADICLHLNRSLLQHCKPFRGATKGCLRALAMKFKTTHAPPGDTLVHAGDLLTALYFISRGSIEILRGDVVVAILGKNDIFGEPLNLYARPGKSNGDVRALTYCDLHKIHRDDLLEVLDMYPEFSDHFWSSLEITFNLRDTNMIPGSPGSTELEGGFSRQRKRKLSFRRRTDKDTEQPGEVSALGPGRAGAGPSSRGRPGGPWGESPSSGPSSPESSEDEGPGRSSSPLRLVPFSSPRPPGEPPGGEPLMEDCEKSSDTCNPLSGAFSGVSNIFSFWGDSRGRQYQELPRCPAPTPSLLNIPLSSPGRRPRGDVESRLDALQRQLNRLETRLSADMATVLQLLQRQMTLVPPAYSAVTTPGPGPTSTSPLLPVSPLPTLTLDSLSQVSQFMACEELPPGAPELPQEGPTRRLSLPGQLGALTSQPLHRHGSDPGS

Row | Structure (SMILES) | hERG current change (%, negative = inhibition) at 1uM
1 | COC(=O)Cc1[nH]nc2c1C1(CCSCC1)C(C#N)=C(N)O2 | 9.38%
2 | CC(C)OC(=O)c1ccc(Cn2nnc3ccccc3c2=O)cc1 | 1.12%
3 | COc1cc2c(cc1OC)CN(C(=O)COc1ccccc1[N+](=O)[O-])CC2 | 9.5%
4 | CCN(CC)C(=O)CSc1nc2cc(OC)c(OC)cc2c(=O)n1Cc1ccc(Cl)cc1 | -1.58%
5 | CCC1C(C#N)=C(N)Oc2c1c(=O)oc1ccccc21 (stereo not drawn) | 17.8%
6 | COc1ccc(-n2c(SCC(N)=O)nc3sc4c(c3c2=O)CCC4)cc1 | -3.69%
7 | Clc1ccc(-c2csc(N/N=C\c3cccnc3)n2)cc1 | 13.2%
8 | CCC(c1nnc(SCC(=O)Nc2ccc(NC(C)=O)cc2)n1Cc1ccccc1)N(C)C (stereo not drawn) | 8.82%
9 | COc1ccc(CN2CCCC2C(=O)Nc2ccc(OC)c(OC)c2)cc1OC (stereo not drawn) | 14.2%
10 | Cc1onc(-c2c(Cl)cccc2Cl)c1C(=O)OCC(=O)c1ccccc1 | 12.8%
11 | COc1ccc(/C=C2/CCCC(C(=O)C(F)(F)F)=C2O)cc1OC | 5.85%
12 | Cc1cc(C)n2nc(SCc3cccc(S(=O)(=O)N(C)C)c3)nc2n1 | 11.5%
13 | Cc1ccccc1NC(=O)c1ccc2c(c1)C(=O)N(CCC(C)C)C2=O | -2.02%
14 | CCN(c1ccccc1)c1nc2ccsc2c(=O)s1 | 13.2%
15 | CN(C)c1ccc(C2N3CC4(C)CN2CC(C)(C3)C4O)cc1 (stereo not drawn) | 12.7%
16 | C=CCOc1c(Cl)cc(CNCCCN2CCOCC2)cc1OC.Cl | -0.304%
17 | COC(=O)Nc1cc(C(F)(F)F)ccc1N1CCN(c2ccccc2)CC1 | 10.7%
18 | O=C1CC(/C=C/c2ccccc2)(C(=O)NC2CCCC2)N1c1ccc(S(=O)(=O)N2CCCC2)cc1 (stereo not drawn) | 0.462%
19 | COc1cc(OC)cc(C(=O)Nc2cccc3nc(C)ccc23)c1 | 12.6%
20 | COc1ccc(/C=C/C(=O)N2CCN(c3ccccn3)CC2)cc1 | 2.77%
21 | Cc1cc(C(=O)O)ccc1NCc1cccnc1 | 14.7%
22 | O=C(Nc1ccc(N2CCOCC2)cc1N1CCOCC1)c1ccc([N+](=O)[O-])cc1Cl | 3.39%
23 | O=c1cc(CN2CCN(S(=O)(=O)c3ccc4c(c3)OCCO4)CC2)c2ccc(O)cc2o1 | 6.77%

Row | Structure (SMILES) | hERG current change (%, negative = inhibition) at 1uM
24 | Cl.N=c1ccn(Cc2ccc(Cl)c(Cl)c2)cc1 | 8.61%
25 | O=c1c(Br)c(NCc2ccccc2)cnn1-c1ccc(F)cc1 | 8.92%
26 | COc1ccc(N2C(=O)/C(=C\c3ccco3)N=C2SCC(=O)NC(C)(C)C)cc1Cl | 5.77%
27 | CN(CC1CCCO1)S(=O)(=O)c1ccc(C(=O)Nc2ccc(S(N)(=O)=O)cc2)cc1 (stereo not drawn) | 8.34%
28 | COc1ccc(NC(=S)N2CCCCC2c2cccnc2)cc1 (stereo not drawn) | 12.2%
29 | Cc1nc(NS(=O)(=O)c2ccccc2)sc1NC(=O)OCCN(C)C | 10.3%
30 | Cc1cccc(NCc2ccc([N+](=O)[O-])s2)c1 | 8.63%
31 | Cc1nc(Nc2ccc(C(=O)O)cc2)nc(Nc2ccc(C(=O)O)cc2)c1[N+](=O)[O-] | 14.6%
32 | CCCCn1c(O)c(C=NCCCn2ccnc2)c(=O)[nH]c1=O | 13.2%
33 | O=C(c1ccc([N+](=O)[O-])cc1)N1CCN(c2ncccn2)CC1 | -40.7%
34 | Cc1nn(C)c(C)c1C(=O)NN | 13%
35 | Cc1c(C(=O)Nc2ccc(Oc3ccccc3)cc2)sc2nc3n(c(=O)c12)CCC3 | -3.64%
36 | CCOc1ccccc1NC(=O)CSc1nnc(CNC(=O)c2ccco2)o1 | 2.39%
37 | COc1ccc(Cl)cc1-c1n[nH]c(=S)n1Cc1ccccc1 | 17%
38 | Cc1cc(C(=O)CSc2nc(N)cc(N)n2)c(C)n1C1CC1 | 4.34%
39 | COc1ccc(OS(=O)(=O)Cc2ccccc2)cc1 | 14%
40 | COC(=O)c1c(-c2ccccc2)c(-c2ccccc2)nn(C)c1=O | 12.9%
41 | CCC1(C)NC(=O)N(/N=C/c2cc(OC)c(O)c(OC)c2)C1=O (stereo not drawn) | 21.6%
42 | CCOC(=O)c1[nH]c2ccc(OC)cc2c1NC(=S)N1CCN(c2ccccc2OC)CC1 | 5.28%
43 | CCC1(C)OC(=O)N2CCc3c(C)[nH]c4c(C)ccc(c34)C21C (stereo not drawn) | 11.7%
44 | COC(=O)c1ccc(Cn2cc(Cl)cn2)cc1 | 5.68%
45 | CCN(C(=O)c1ccc2c(c1)OCO2)C1CCS(=O)(=O)C1 (stereo not drawn) | 6.88%
